Screen size: about 150,000 compounds; about 540 (0.36%) showed an effect of 50% or more. This is one part of the list.
The compounds below were run on Plasmodium falciparum (assay: Primary screen in NF54 nanoGlo assay, in single point, at 2uM, 72h; a lower Z score goes with more inhibition). Conditions: timepoint 72 hour.
Type: functional, Erythrocyte
`CC(C)C[C@@H](C(N)=O)n1cc(-c2ncc[nH]2)nn1` was tested, and the “% Inhibition” value was 7% and the Z score was -1.18. `CCn1c(CNC(=O)C2CCC2)nc2c1CN(S(=O)(=O)c1ccc(F)cc1)CC2` was tested, and the “% Inhibition” value was -4% and the Z score was 0.46. For `C=C1C2(C(=O)N3CCN(c4ccccc4F)CC3)CCC(C2)C1(C)C` (stereo not drawn), the “% Inhibition” value was 5% and the Z score was -0.57. With `Cc1ccc(-n2cc(-c3ccccc3)nc2NC(=O)CN(C(=O)Cc2ccccc2)C(C)C)cc1F` the “% Inhibition” value was 2% and the Z score was -0.39. `CCC(NC(=O)CCN1Cc2ccccc2C1)[C@H]1C[C@H](O)C1` (stereo partly drawn) was tested, and the “% Inhibition” value was -15% and the Z score was 2.65. For `O[C@@]1(CN2CCC(COc3ccc4c(c3)CCC4)CC2)CCCNC1`, the “% Inhibition” value was 41% and the Z score was -4.19. With `Cc1nccc(NC(=O)NCc2ccco2)c1Cl` the “% Inhibition” value was -4% and the Z score was 0.34. `CCN1CCO[C@@H](CNCc2cnc(N3CCOCC3)nc2)C1` was tested, and the “% Inhibition” value was -22% and the Z score was 4.05. In the case of `CC(C)[C@H](NC(=O)Nc1ccccc1)C(=O)N1CCC(C(N)=O)CC1`, the “% Inhibition” value is reported as -14% and the Z score is reported as 1.3. In the case of `CC(C)N1CCC(CC(=O)N[C@@H](CO)c2ccccc2)CC1`, the “% Inhibition” value is reported as 5% and the Z score is reported as -0.62. In the case of `O=S(=O)(CCC1CC1)N[C@H]1CCN(CC2CC2)C1`, the “% Inhibition” value is reported as -6% and the Z score is reported as 0.84. `Cn1ncc(Cl)c1C(=O)N(C1CCCCC1)C1CCCCC1` was tested, and the “% Inhibition” value was 33% and the Z score was -4.74. In the case of `C[C@@]12CCCN1C(=O)N(C1CCN(c3c(F)cccc3F)C1=O)C2=O` (stereo partly drawn), the “% Inhibition” value is reported as -13% and the Z score is reported as 1.73. For `OCc1sncc1-c1cccc(C2CCC2)c1`, the “% Inhibition” value was -8% and the Z score was 0.69. `Cc1nc(NCc2sccc2C)n(C)n1` was tested, and the “% Inhibition” value was 1% and the Z score was -0.15. In the case of `Cc1ccc(C2CCN(C(=O)[C@H](C)c3cccc(O)c3)CC2)cn1`, the “% Inhibition” value is reported as -11% and the Z score is reported as 1.49. For `COc1cccc(F)c1-c1c(-c2ccccc2)ncn1CCc1nncn1C`, the “% Inhibition” value was -7% and the Z score was 1.21. With `COCC(NC1C2CCOC2C12CCC2)C1CC1` (stereo not drawn) the “% Inhibition” value was -15% and the Z score was 1.56. For `Cc1noc(C2CCCN(C(C(=O)O)c3ccccc3Br)C2)n1` (stereo not drawn), the “% Inhibition” value was -13% and the Z score was 1.35. In the case of `Cc1cc(OC2COCC2N)nc2ccccc12` (stereo not drawn), the “% Inhibition” value is reported as -2% and the Z score is reported as 0.29. `c1cncc(-c2nc3c(c(N4CCc5n[nH]cc5C4)n2)CCNCC3)c1` was tested, and the “% Inhibition” value was 2% and the Z score was -0.22. In the case of `N#CCCCS(=O)(=O)Cc1cc(Cl)ccc1Cl`, the “% Inhibition” value is reported as -7% and the Z score is reported as 0.76. For `COc1ccccc1NC(=O)Nc1ccc2c(c1)C(=O)N(C)C2=O`, the “% Inhibition” value was 1% and the Z score was -0.12. With `O=C(Cn1cnc2ccccc2c1=O)NCc1cncc(-c2ccco2)c1` the “% Inhibition” value was -6% and the Z score was 1.14. `CCC(O)CN(c1ccccc1)C1CCN(CC(F)(F)F)C1=O` (stereo not drawn) was tested, and the “% Inhibition” value was -7% and the Z score was 0.7. With `CCCC(=O)Nc1ccc2c(c1)CN(C(=O)c1ccc(N(C)C)cc1)[C@H](C(=O)N(C)C)C2` the “% Inhibition” value was -7% and the Z score was 1.14. With `Cc1nnc2c3ccc(Cl)cc3nc(N3CCN(C(=O)C4CCCC4)[C@@H](C)C3)n12` the “% Inhibition” value was -16% and the Z score was 1.87. For `COc1ccc(C(=O)N2CCN(CC3CC3)[C@@H]3CS(=O)(=O)C[C@@H]32)cc1C`, the “% Inhibition” value was -8% and the Z score was 1. `O=C(c1cnn2cccnc12)N1CCN(CC2CC2)[C@@H]2CS(=O)(=O)C[C@@H]21` was tested, and the “% Inhibition” value was -8% and the Z score was 1.2. `FCCCn1nnnc1-c1ccncc1` was tested, and the “% Inhibition” value was -3% and the Z score was 0.34. With `Cc1ccc(-n2ncc3c2CC(C)(C)C[C@@H]3NC(=O)CN2CCCC2=O)cc1` the “% Inhibition” value was -21% and the Z score was 2.22. `c1cnc(N2CCN(Cc3csc(-c4cccs4)n3)CC2)nc1` was tested, and the “% Inhibition” value was -14% and the Z score was 1.63. `CC(C)c1ncc(C(=O)N2CCOC[C@@H](C3CCC3)C2)s1` was tested, and the “% Inhibition” value was -4% and the Z score was 0.69. In the case of `CC(C)Cc1nc(CNC(C)C2CCCO2)no1` (stereo not drawn), the “% Inhibition” value is reported as -10% and the Z score is reported as 0.9. In the case of `CCn1cc(OC(=O)c2coc(-c3ccccc3)n2)cn1`, the “% Inhibition” value is reported as -7% and the Z score is reported as 0.91. With `Cc1ccc(NC(=O)CN2CC(=O)NC2=O)cc1C` the “% Inhibition” value was -2% and the Z score was 0.26. With `Cc1ccsc1C(=O)N1CC[C@@]2(CCCN(CC(C)(C)C)C2=O)C1` the “% Inhibition” value was 1% and the Z score was -0.07. For `O=C(c1cc(C2CC2)on1)N1CCn2nc3c(c2C1)CCC3`, the “% Inhibition” value was 16% and the Z score was -2.01. For `Brc1cc(Br)c2nc(-c3ccc(C4CCCCC4)cc3)ccc2c1`, the “% Inhibition” value was 33% and the Z score was -1.13. For `Cc1cc(C)c2[nH]c(C(=O)N3CCC(O)(CN4CCCC4)CC3)c(C)c2c1`, the “% Inhibition” value was -7% and the Z score was 0.92. `O=C1CCN(Cc2c[nH]nc2-c2ccc(F)cc2)CCN1CCN1CCCCC1` was tested, and the “% Inhibition” value was 3% and the Z score was -0.54. `Cc1ccc(C(=O)Nc2cccc(N3CCCCCC3)c2)c(=O)[nH]1` was tested, and the “% Inhibition” value was -12% and the Z score was 1.57. `O=C(NCc1ccncc1)c1coc(COc2cccc(C(F)(F)F)c2)n1` was tested, and the “% Inhibition” value was -10% and the Z score was 1.48. In the case of `CC(C)[C@H](NC(=O)c1cn(C)cn1)c1ncnn1C`, the “% Inhibition” value is reported as -17% and the Z score is reported as 3.31. For `CCCC(=O)N(c1ccc2c(c1)c(C(=O)OCC)c(C)n2S(C)(=O)=O)S(C)(=O)=O`, the “% Inhibition” value was -15% and the Z score was 1.97. For `Cn1ccnc1NC(=O)c1ccccc1-n1cnnc1`, the “% Inhibition” value was 2% and the Z score was -0.33. `CN1CCC(N2C[C@@H](F)[C@@H](OCc3nc4ccccc4o3)C2)CC1` was tested, and the “% Inhibition” value was 26% and the Z score was -2.92. `Cn1cncc1CNCC1(N2CCOCC2)CCCCC1` was tested, and the “% Inhibition” value was -7% and the Z score was 1.07. With `O=C(NCCc1cccs1)c1nn[nH]c1Nc1ccccc1F` the “% Inhibition” value was 37% and the Z score was -5.3. In the case of `O=C(Nc1nc(-c2csc(NC(=O)c3cccc(C(F)(F)F)c3)n2)cs1)c1cccc(C(F)(F)F)c1`, the “% Inhibition” value is reported as 6% and the Z score is reported as -0.98. With `O=C(NC1CCOC2(CCOC2)C1)N[C@H]1CCCc2ccc(F)cc21` (stereo partly drawn) the “% Inhibition” value was -6% and the Z score was 0.64. In the case of `Cc1cc(C)cc(NC(=O)[C@H]2CCCN(S(=O)(=O)Cc3ccccc3Cl)C2)c1`, the “% Inhibition” value is reported as -5% and the Z score is reported as 0.71. For `O=C(c1ccc2ccccc2c1)[C@H]1CCCN(C(=O)CCN2CCCCO2)C1`, the “% Inhibition” value was -15% and the Z score was 2.24. With `O=C(c1onc2ccccc12)N1CCC(n2cc(C3CCCC3)nn2)CC1` the “% Inhibition” value was 2% and the Z score was -0.19. In the case of `CCCNC(=O)CN1CCn2nc(-c3ccccc3)cc2C1=O`, the “% Inhibition” value is reported as 6% and the Z score is reported as -0.74. With `O=c1n(Cc2cccc(Br)c2)nc2c(S(=O)(=O)N3CCCCC3)cccn12` the “% Inhibition” value was 3% and the Z score was -0.46. With `Cc1nc(C(C)C)oc1Cn1cnc2c(c1=O)CCC2` the “% Inhibition” value was -2% and the Z score was 0.41. For `O=C(NC1CCCCC1)[C@@]12CCCC[C@H]1N(C1CC1)S(=O)(=O)CC2`, the “% Inhibition” value was -6% and the Z score was 0.74. With `CC(C)(Cc1cccc(Cl)c1)C(=O)NCC1(O)CCOCC1` the “% Inhibition” value was 6% and the Z score was -1. With `CC[C@@H](C)[C@H](NC(=O)N1CC(=O)Nc2ccccc21)C(=O)NCc1cccnc1` the “% Inhibition” value was -5% and the Z score was 0.6. `CC(=O)Nc1ccc(CN2CCc3c(c(CO)nn3C)C2)cc1` was tested, and the “% Inhibition” value was -4% and the Z score was 0.78. With `c1ccc(-c2nnc(-c3cccnc3NCc3cccs3)o2)cc1` the “% Inhibition” value was -5% and the Z score was 0.8. For `O=C(NC1CC1c1cccc(F)c1)c1cc[n+]([O-])cc1` (stereo not drawn), the “% Inhibition” value was -1% and the Z score was 0.2. For `O=C(O)c1ccc2[nH]c(C3CC3)nc2c1`, the “% Inhibition” value was 7% and the Z score was -0.77. `C=CCOc1ccc(C(=O)NCCOC)cc1` was tested, and the “% Inhibition” value was -11% and the Z score was 1.66. `COc1ccc(C(=O)N[C@H](C(=O)NC(C)C)C2CCN(C(=O)c3cccc(OC)c3)CC2)cc1` was tested, and the “% Inhibition” value was -3% and the Z score was 0.63. In the case of `CCCn1c(=O)n(CCC(=O)N2CCC[C@H](c3nnc4ccccn34)C2)c2ccccc21`, the “% Inhibition” value is reported as -8% and the Z score is reported as 1.03. `CC(=O)Nc1sc2c(c1-c1nc3ccccc3s1)CCN(C(C)=O)C2` was tested, and the “% Inhibition” value was -6% and the Z score was 0.97. In the case of `CN(Cc1ccco1)C(=O)c1nc(N2CCOCC2)ncc1Cl`, the “% Inhibition” value is reported as -6% and the Z score is reported as 1.09. For `O=C(Nc1nc2c(s1)CCCC2)c1ccc2ccccc2c1`, the “% Inhibition” value was -8% and the Z score was 1.37. In the case of `COCc1noc(CN2CC[C@@]3(CCCN(C4CCCC4)C3=O)C2)n1`, the “% Inhibition” value is reported as -7% and the Z score is reported as 1.03. With `Cc1ccccc1-n1nc([C@H]2CCOC2)nc1-c1ncn[nH]1` the “% Inhibition” value was -7% and the Z score was 1.14. With `CC(C)(c1ccccc1)c1nnc(-c2cnc3onc(C4CC4)c3c2)o1` the “% Inhibition” value was -17% and the Z score was 3.27. In the case of `CCCN1C(=O)c2c(C(=O)NCc3cccc(C)c3)ncn2C[C@@]1(C)C(=O)NC1CCCC1`, the “% Inhibition” value is reported as -14% and the Z score is reported as 2.71. `CCn1cnc2c(N(C)Cc3cc(OC)ns3)ncnc21` was tested, and the “% Inhibition” value was -8% and the Z score was 1.49. For `COc1ccccc1CCNC(=O)[C@H]1CCCN(S(=O)(=O)c2c(C)nc(O)nc2O)C1`, the “% Inhibition” value was 7% and the Z score was -1.1. In the case of `CN(Cc1cccc2cccnc12)C(=O)c1cc2cc(C3(O)CCN(CC(C)(C)C)CC3)ccc2o1`, the “% Inhibition” value is reported as 8% and the Z score is reported as -1.03. With `COC[C@H](C)NS(=O)(=O)c1cccc(F)c1` the “% Inhibition” value was 4% and the Z score was -0.57. For `CCCCOC1CC(N(C)C(=O)c2ccc(=O)n(CC)n2)C1(C)C` (stereo not drawn), the “% Inhibition” value was -9% and the Z score was 0.97. In the case of `Cc1cc(-n2nc(C)cc2NC(=O)Cc2ccon2)nc(C)n1`, the “% Inhibition” value is reported as 5% and the Z score is reported as -1.05. In the case of `CC(=O)N1CCN(C(=O)c2cc(N3C(=O)CCS3(=O)=O)ccc2Cl)CC1`, the “% Inhibition” value is reported as 3% and the Z score is reported as -0.54. For `Cc1cc(C)c(S(=O)(=O)NCCc2cnoc2)s1`, the “% Inhibition” value was -7% and the Z score was 1.09. In the case of `COc1ccc(CC(=O)Nc2ccc(N3CCN(C4CCCC4)C3=O)nc2)cc1`, the “% Inhibition” value is reported as -2% and the Z score is reported as 0.22. For `CC(C)[C@@H]1NC(=O)[C@@H]2C[C@H](NC(=O)c3cccnc3Oc3ccc(Cl)cc3)CN2C1=O`, the “% Inhibition” value was -21% and the Z score was 2.39.
